Data published in the GPR68 mutational scans of Howard et al. (2025).
Scores whose standard error is large were omitted. The source holds two more conditions with little spread; they are left out. Names with del lack the residues named; names with ins carry added residues between the positions named. For part of these data: How much ogerin was present is not stated here.

B1: GPR68, Q15743 (parent)
chain: MGNITADNSSMSCTIDHTIHQTLAPVVYVTVLVVGFPANCLSLYFGYLQIKARNELGVYLCNLTVADLFYICSLPFWLQYVLQHDNWSHGDLSCQVCGILLYENIYISVGFLCCISVDRYLAVAHPFRFHQFRTLKAAVGVSVVIWAKELLTSIYFLMHEEVIEDENQHRVCFEHYPIQAWQRAINYYRFLVGFLFPICLLLASYQGILRAVRRSHGTQKSRKDQIQRLVLSTVVIFLACFLPYHVLLLVRSVWEASCDFAKGVFNAYHFSLLLTSFNCVADPVLYCFVSETTHRDLARLRGACLAFLTCSRTGRAREAYPLGAPEASGKSGAQGEEPELLTKLHPAFQTPNSPGSGGFPTGRLA

How the values were obtained:
[1] = variants of: B1; test: cAMP reporter score (Enrich2 score, wild type = 0); higher = more signal; HEK293T, FACS bins
[2] = variants of: B1; test: surface expression score (Enrich2 score, wild type = 0); higher = more signal; HEK293T, FACS bins

Row | Variant | cAMP reporter score ([1]; pH 5.5) | cAMP reporter score ([1]; pH 6) | cAMP reporter score ([1]; pH 6, modulator: ogerin) | cAMP reporter score ([1]; pH 6.5, modulator: ogerin) | surface expression score [2]
1 | G2del | -0.473 | -0.867 | -0.762 | -0.88 | -1.24
2 | MGAITADNSSMSCTIDHTIHQTLAPVVYVTVLVVGFPANCLSLYFGYLQIKARNELGVYLCNLTVADLFYICSLPFWLQYVLQHDNWSHGDLSCQVCGILLYENIYISVGFLCCISVDRYLAVAHPFRFHQFRTLKAAVGVSVVIWAKELLTSIYFLMHEEVIEDENQHRVCFEHYPIQAWQRAINYYRFLVGFLFPICLLLASYQGILRAVRRSHGTQKSRKDQIQRLVLSTVVIFLACFLPYHVLLLVRSVWEASCDFAKGVFNAYHFSLLLTSFNCVADPVLYCFVSETTHRDLARLRGACLAFLTCSRTGRAREAYPLGAPEASGKSGAQGEEPELLTKLHPAFQTPNSPGSGGFPTGRLA [N3A] | 0.126 | -0.553 | 0.239 | -0.943 | -0.219
3 | MGEITADNSSMSCTIDHTIHQTLAPVVYVTVLVVGFPANCLSLYFGYLQIKARNELGVYLCNLTVADLFYICSLPFWLQYVLQHDNWSHGDLSCQVCGILLYENIYISVGFLCCISVDRYLAVAHPFRFHQFRTLKAAVGVSVVIWAKELLTSIYFLMHEEVIEDENQHRVCFEHYPIQAWQRAINYYRFLVGFLFPICLLLASYQGILRAVRRSHGTQKSRKDQIQRLVLSTVVIFLACFLPYHVLLLVRSVWEASCDFAKGVFNAYHFSLLLTSFNCVADPVLYCFVSETTHRDLARLRGACLAFLTCSRTGRAREAYPLGAPEASGKSGAQGEEPELLTKLHPAFQTPNSPGSGGFPTGRLA [N3E] | 0.406 | -0.911 | 0.21 | 0.345 | 0.052
4 | MGDITADNSSMSCTIDHTIHQTLAPVVYVTVLVVGFPANCLSLYFGYLQIKARNELGVYLCNLTVADLFYICSLPFWLQYVLQHDNWSHGDLSCQVCGILLYENIYISVGFLCCISVDRYLAVAHPFRFHQFRTLKAAVGVSVVIWAKELLTSIYFLMHEEVIEDENQHRVCFEHYPIQAWQRAINYYRFLVGFLFPICLLLASYQGILRAVRRSHGTQKSRKDQIQRLVLSTVVIFLACFLPYHVLLLVRSVWEASCDFAKGVFNAYHFSLLLTSFNCVADPVLYCFVSETTHRDLARLRGACLAFLTCSRTGRAREAYPLGAPEASGKSGAQGEEPELLTKLHPAFQTPNSPGSGGFPTGRLA [N3D] | -0.08 | -0.974 | -0.559 | -0.473 | -0.707
5 | MGCITADNSSMSCTIDHTIHQTLAPVVYVTVLVVGFPANCLSLYFGYLQIKARNELGVYLCNLTVADLFYICSLPFWLQYVLQHDNWSHGDLSCQVCGILLYENIYISVGFLCCISVDRYLAVAHPFRFHQFRTLKAAVGVSVVIWAKELLTSIYFLMHEEVIEDENQHRVCFEHYPIQAWQRAINYYRFLVGFLFPICLLLASYQGILRAVRRSHGTQKSRKDQIQRLVLSTVVIFLACFLPYHVLLLVRSVWEASCDFAKGVFNAYHFSLLLTSFNCVADPVLYCFVSETTHRDLARLRGACLAFLTCSRTGRAREAYPLGAPEASGKSGAQGEEPELLTKLHPAFQTPNSPGSGGFPTGRLA [N3C] | -0.634 | -1.34 | -0.899 | -0.46 | -1.56
6 | G2_N3insGS | 0.026 | -0.206 | -0.086 | 0.339 | -0.294
